Measurements published in article PMC8649222, “Exclusive inhibition of IL-6 trans-signaling by soluble gp130^FlyRFc” (Cytokine: X, 2021).

Columns and labels:
Experiment in all cases: SPR; Biacore X100, multi-cycle; sgp130Fc variants captured on a Protein A chip (~500 RU); HIL-6 or HIL-11 injected at 0.1953-50 nM, 30 µl/min; 25 °C, PBS pH 7.4, 0.05% surfactant P20; 1:1 binding model
Settings in all cases: both partners purified
[1] = molecular target: T1, sgp130^R281QFc (human, UniProt P40189 23-619, R281Q)
T1 construct: gp130, all six extracellular domains (D1-D6), with the patient SNP R281Q in domain 3; Disulfide-linked dimer through the Fc; Made by site-directed mutagenesis of the sgp130Fc plasmid; R281Q is a SNP found in a patient; source: Expi293 cells, transiently transfected, purified from supernatant (protein A)
T1 sequence (looked up): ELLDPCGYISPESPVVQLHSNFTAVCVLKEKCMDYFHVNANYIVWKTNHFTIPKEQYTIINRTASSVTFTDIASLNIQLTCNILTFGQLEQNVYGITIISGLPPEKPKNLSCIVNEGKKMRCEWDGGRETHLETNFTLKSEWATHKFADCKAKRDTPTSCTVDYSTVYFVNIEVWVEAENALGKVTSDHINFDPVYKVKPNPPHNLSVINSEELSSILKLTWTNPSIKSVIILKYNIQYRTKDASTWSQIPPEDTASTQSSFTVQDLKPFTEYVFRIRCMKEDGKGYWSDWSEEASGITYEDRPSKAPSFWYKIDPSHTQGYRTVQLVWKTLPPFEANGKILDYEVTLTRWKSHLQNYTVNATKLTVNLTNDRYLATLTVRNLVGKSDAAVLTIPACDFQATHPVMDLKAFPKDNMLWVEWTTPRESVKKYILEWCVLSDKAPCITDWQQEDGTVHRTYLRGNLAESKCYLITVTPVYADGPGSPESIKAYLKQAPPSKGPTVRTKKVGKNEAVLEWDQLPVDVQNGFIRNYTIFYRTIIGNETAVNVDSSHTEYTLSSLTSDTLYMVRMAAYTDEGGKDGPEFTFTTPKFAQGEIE

[2] = molecular target: T2, sgp130^FlyRFc (human, UniProt P40189 23-619, T102Y | Q113F | N114L | R281Q)
T2 construct: gp130, all six extracellular domains (D1-D6), with the Fly mutations and R281Q; Disulfide-linked dimer through the Fc; Made by site-directed mutagenesis of the sgp130^FLYFc plasmid; also called sgp130^Fly,R281QFc; sgp130^FLY/R281QFc; source: Expi293 cells, transiently transfected, purified from supernatant (protein A)
T2 sequence (looked up): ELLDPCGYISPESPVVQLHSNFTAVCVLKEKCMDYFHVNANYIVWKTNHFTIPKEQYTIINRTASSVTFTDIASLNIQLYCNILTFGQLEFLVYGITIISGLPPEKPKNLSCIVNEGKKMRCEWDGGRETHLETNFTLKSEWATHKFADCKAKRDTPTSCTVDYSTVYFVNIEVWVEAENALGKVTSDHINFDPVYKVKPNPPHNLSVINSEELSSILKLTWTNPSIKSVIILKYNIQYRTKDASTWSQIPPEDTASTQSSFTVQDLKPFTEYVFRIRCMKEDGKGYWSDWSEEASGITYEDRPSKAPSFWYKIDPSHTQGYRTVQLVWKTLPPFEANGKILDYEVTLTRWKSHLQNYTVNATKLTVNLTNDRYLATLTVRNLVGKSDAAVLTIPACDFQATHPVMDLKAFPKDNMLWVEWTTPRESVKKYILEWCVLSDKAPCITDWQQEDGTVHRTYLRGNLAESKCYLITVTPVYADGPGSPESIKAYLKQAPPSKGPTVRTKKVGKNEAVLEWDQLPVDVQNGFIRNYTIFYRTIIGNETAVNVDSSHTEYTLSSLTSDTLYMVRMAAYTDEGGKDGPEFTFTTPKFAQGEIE

[3] = molecular target: T3, sgp130Fc (human, UniProt P40189 23-619)
T3 construct: gp130, all six extracellular domains (D1-D6); also called soluble gp130Fc; olamkicept; source: stably transfected CHO-K1 cells (roller bottles), purified from supernatant (protein A)
T3 sequence (looked up): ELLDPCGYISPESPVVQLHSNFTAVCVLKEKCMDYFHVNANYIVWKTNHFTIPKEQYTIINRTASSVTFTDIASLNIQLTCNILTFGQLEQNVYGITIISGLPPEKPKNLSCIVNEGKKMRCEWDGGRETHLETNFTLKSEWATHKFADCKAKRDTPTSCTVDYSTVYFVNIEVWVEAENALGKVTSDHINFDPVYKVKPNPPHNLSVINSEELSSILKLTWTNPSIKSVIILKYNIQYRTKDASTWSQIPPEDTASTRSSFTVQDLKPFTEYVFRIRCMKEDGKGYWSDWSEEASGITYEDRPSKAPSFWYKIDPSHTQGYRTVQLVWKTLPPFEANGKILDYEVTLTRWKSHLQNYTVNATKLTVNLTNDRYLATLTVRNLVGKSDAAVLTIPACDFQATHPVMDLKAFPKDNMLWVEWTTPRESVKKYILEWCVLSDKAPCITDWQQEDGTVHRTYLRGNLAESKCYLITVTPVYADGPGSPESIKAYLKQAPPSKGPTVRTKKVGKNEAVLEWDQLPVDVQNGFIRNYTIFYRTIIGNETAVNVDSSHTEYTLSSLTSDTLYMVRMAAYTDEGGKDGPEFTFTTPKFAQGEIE

B1: Hyper IL-6 (HIL-6), fusion protein of IL-6 and the soluble IL-6R connected by a flexible peptide linker (other)
chain: LAPRRCPAQEVARGVLTSLPGDSVTLTCPGVEPEDNATVHWVLRKPAAGSHPSRWAGMGRRLLLRSVQLHDSGNYSCYRAGRPAGTVHLLVDVPPEEPQLSCFRKSPLSNVVCEWGPRSTPSLTTKAVLLVRKFQNSPAEDFQEPCQYSQESQKFSCQLAVPEGDSSFYIVSMCVASSVGSKFSKTQTFQGCGILQPDPPANITVTAVARNPRWLSVTWQDPHSWNSSFYRLRFELRYRAERSKTFTTWMVKDLQHHCVIHDAWSGLRHVVQLRAQEEFGQGEWSEWSPEAMGTPWTESRSPPAENEVSTPMQALTTNKDDDNILFRDSANATSLPVQDSSSVP[about 200 residues left out]
For B1, the Kd [1] was 95 pM, the Kd [2] was 42 pM and the Kd [3] was 148 pM.
